120 sequences from the supplement of paper PMC10126150 can be followed below.

This data set relates to ATP. The data set is described as follows: switch fluorescence ratio, 500 uM ATP over buffer (Cy3 cluster intensity, sum of 5 cycles each) (fold (ratio)); higher = stronger signal-on switching upon ATP binding; sequences stand for … in TCGTCGGCAGCGTCAGATGTGTATAAGAGACAGTTTTTTTTTTTTTTTTTTTTTTTTT…TC. The settings on record: aptamer strand: ATP DNA aptamer (quencher-CACCTGGGGGAGTATTGCGGAGGAAGG + anchor), 100 nM annealed; ATP concentration: 500 uM; one replicate. In short, it runs like this:
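Clusters with intensities outside 100-1000 RFU were excluded. The remaining Cy3-labelled switching-strand clusters on a modified Illumina MiSeq flow-cell had been annealed to 100 nM quencher-labelled ATP aptamer and imaged in selection buffer, then after 15 min with 500 uM ATP at 22 °C, for five cycles separated by NaOH stripping and re-annealing. The fluorescence ratio, averaged per switch-domain sequence, is each cluster's summed target-cycle Cy3 intensity over its summed buffer-cycle Cy3 intensity.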

Values marked as one replicate rest on one cluster of the flow cell; about a third of the high ones do not repeat.
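Further: ATP exposure 15 min at 22 °C before imaging.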

With TATAAAGGTT, the switch fluorescence ratio is 0.961.

Take ATAGCTCGA: the switch fluorescence ratio was determined as 1.03. For CTAAGTGCTT, the switch fluorescence ratio was found to be 0.993. To TCTTTCAGCT belongs 1.03. The same measure for TCTACACCTT: 1.25; for CATTGCCCCG: 1; for ATGGGCGGA: 1.02. As to TATGCGGTTA, the switch fluorescence ratio amounted to 0.969. To TCAGTGAAAG belongs 0.99. For TAAAAATATC, the switch fluorescence ratio was determined as 0.975.

Regarding TGCCACAGAC, the switch fluorescence ratio is 1.33. Turning to TCAAGGGTGT, the switch fluorescence ratio worked out at 1.14. To CGATCAGGTA belongs 0.972; to CAATTGTGGT, 0.984; to AGCTCTCGGT, 0.964.

For CGCTGTGCAG, the switch fluorescence ratio stood at 1.02. The same measure for TTACAATGTA: 1.02. On to AAAGGTAGAT, for which the switch fluorescence ratio stood at 1.04.

With CTTCAACTAC, the switch fluorescence ratio was determined as 1.4. AAATTCGAA: the switch fluorescence ratio was determined as 1.05. Regarding CTTGTTAACT, the switch fluorescence ratio was 0.981. On to TGAGGTTTAA, for which the switch fluorescence ratio stood at 1.01. Regarding TCGGCGAGCT, the switch fluorescence ratio was 0.967. The same measure for TGGAAGACGC: 1.01; for GCTTTCACAG: 1.01.

For TGAGGGGAGC, the switch fluorescence ratio worked out at 0.965. To GCAATTACTG belongs 1.98; to GCCATGATGA, 0.989; to GCCCTGGGAT, 1.03. Take ACATGACAGG: the switch fluorescence ratio was 1.08.

For the sequence GTCTTAAGGG, the switch fluorescence ratio amounted to 0.963. The same measure for GATAATGCTA: 1.01; for GAGTTAATAC: 1.19.

In the case of ACAAATCTAC, the switch fluorescence ratio is 1.03. The same measure for GATTCAATGG: 1.04; for CAGCAATAAA: 3.79; for TTGGTATGTT: 1.05. The same measure for TATGGGTAGG: 1.02. To GTAATCGTTA belongs 1.02; to GTACATAAGT, 1.05. For TTAGAGGTA, the switch fluorescence ratio is 0.965. To AGGATAATCG belongs 0.937.

GAGCAAACTC: the switch fluorescence ratio is 3.67.

For the sequence AGTGATCGGG, the switch fluorescence ratio came out at 1.02. The same measure for GGAATCGTT: 1; for TGGAAGAGTC: 0.955. The same measure for GATAAGCGCT: 0.993; for CGATTTCGA: 1.01.

As for TGAAACGTTC, the switch fluorescence ratio was 1.18. For GCTCATCTGC, the switch fluorescence ratio is 0.957. The same measure for AGTCGTATTG: 0.971; for TCTTTTGACG: 0.922; for TAATGCGTGC: 0.995. To CTTTAGGTCA belongs 0.981; to CGCGGCCGTG, 0.979. To TCTAGGTCAT belongs 1; to AGGAATGGTA, 1.01; to GTTTTAATCA, 1.03. On to GCTGATTTTC, for which the switch fluorescence ratio is 0.999. Regarding AGCCCGCTCG, the switch fluorescence ratio is 1.05.

TACCCTGGAG: the switch fluorescence ratio is 1.02.

As to CCTTGAAGTG, the switch fluorescence ratio is 1. The same measure for ACGTCCTAAC: 1.15; for TGATCCATCA: 0.999; for GGCGTAAAAC: 1.4. To TTACGGGTGT belongs 1.01. Take CGGGACTCGA: the switch fluorescence ratio was found to be 0.996.

In the case of TGGCATTTT, the switch fluorescence ratio amounted to 1.04.

In the case of ATACGCCTG, the switch fluorescence ratio came to 1.04. TGGGGGCAT: the switch fluorescence ratio turned out to be 0.979. Consider ACAATGGTGG, for which the switch fluorescence ratio was 0.994.

On to TCCGGCAGGA, for which the switch fluorescence ratio was found to be 0.945. The same measure for AAAATCGGC: 1.88; for GTTGGAGTC: 0.961.

For GCGATCTATC, the switch fluorescence ratio was found to be 0.98. Turning to GTGGCCTATC, the switch fluorescence ratio amounted to 0.962. Consider CGTGCGGTTT, for which the switch fluorescence ratio amounted to 1.02. The same measure for TTATCTTGCG: 0.968. The same measure for GCGCACTTCC: 1.9; for CCGATACGAG: 3.47; for CTTTGGATCC: 1.02. In the case of ACAGGCACCT, the switch fluorescence ratio came out at 1.25.

As for GGGCAAGACT, the switch fluorescence ratio stood at 2.85. On to TGACCGAGGG, for which the switch fluorescence ratio is 1.02. TCGGTATCTC: the switch fluorescence ratio stood at 1.02. The same measure for TGGTGAAGGT: 0.971. For AGTTACGATG, the switch fluorescence ratio came out at 1.03. The same measure for TTGTGTACGG: 1.06.

Take GACCGGGACT: the switch fluorescence ratio came to 0.985.

Consider TCTCTAAATT, for which the switch fluorescence ratio came to 1.03. With TAAGGTCTT, the switch fluorescence ratio was 1.07. The same measure for ACTATCGTTG: 0.92. On to TCTGAAGCAG, for which the switch fluorescence ratio came out at 3.32. The same measure for CTACCGACGG: 1.02; for GTTGGTTGTC: 1.14. On to TCTACTTGGT, for which the switch fluorescence ratio is 0.977. The same measure for TAGCCGGCAC: 0.993; for ACTAGTTCGC: 0.987; for TGATCAATTT: 0.909. To TCACATTATG belongs 1.02; to GGTGCATACG, 0.991; to TCCGCCTAAT, 2.54.

Consider CGTGGTCCTA, for which the switch fluorescence ratio turned out to be 0.899. To TACCGGTCGC belongs 1.03; to ATAGACGCGA, 1.12; to CAGGCGTGTT, 1.03.

In the case of CCAGAGGGAC, the switch fluorescence ratio came out at 0.987.

Turning to CAGGGGAGGC, the switch fluorescence ratio stood at 1.05. GTGTTTG: the switch fluorescence ratio worked out at 0.961. The same measure for GTATGTGGGC: 1.08; for TGGTTTGAAG: 1.03. On to TCAGTAGGAT, for which the switch fluorescence ratio came out at 1.02. The same measure for CCCCGGCTAT: 3.66; for CCAAATTACA: 1.03; for AATAATTCCT: 1. To AGCGGCCATC belongs 0.986; to TGATAGTTAT, 0.982. To TTGATCCTGG belongs 0.99.

GGATCGTGAC: the switch fluorescence ratio was 1.03. To GGGATCAGTT belongs 1.04.
